Results published in PubChem BioAssay AID485281 (National Center for Advancing Translational Sciences (NCATS), 2010).
The campaign covered roughly 350,000 compounds. About 260 (0.074%) were called active. This list was built around the results that the source calls inconclusive (neither active nor inactive); the mix of calls is not that of the screen. The call rests on the fitted dose curve; in most records, active means well fitted inhibition curve with a large enough effect; inconclusive means small, poorly fitted or top-dose-only effect; inactive means no such curve, though single readings can be large or run the other way. Potencies of inconclusive entries are doubtful fits and often do not repeat.

Molecular target: Ferritin light chain (Equus caballus) (UniProt P02791)
Assay: qHTS Assay for Identification of Novel General Anesthetics; further: nearly all actives have a fitted effect of over 20% in size
Conditions: apoferritin/1-aminoanthracene competitive binding, fluorescence; activity change, negative = displacement: at 77.5 µM (top of the series)
Outline: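 Probe: 1-aminoanthracene (50% saturated, PBS). Protein: horse-spleen apoferritin, 10 uM. Incubation: 10 min, room temperature. Detection: 380 nm excitation, 535 nm emission. Analysis: normalized response, four-parameter Hill.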
On the % scale 0 is the no-effect control and ±100 the full control effect; potency means the concentration at half of the fitted maximal effect; tags describe the fitted curve by direction and shape.

Chain of UniProt P02791 (P02791 whole entry, looked up): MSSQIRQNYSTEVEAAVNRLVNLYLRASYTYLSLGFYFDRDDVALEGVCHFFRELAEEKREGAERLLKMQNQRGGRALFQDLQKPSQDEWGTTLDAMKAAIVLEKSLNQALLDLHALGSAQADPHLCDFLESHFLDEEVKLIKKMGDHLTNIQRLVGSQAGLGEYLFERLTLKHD

Potency, inconclusive:
O=C(c1cccc(-c2nnc(-c3ccccc3)o2)c1)N1CCCCCC1 25.1 µM [inhibitor, partial curve]
Cn1cnnc1SC(C(=O)Nc1cccc(C(F)(F)F)c1)c1ccccc1 (stereo unspecified) 28.2 µM [inhibitor, partial curve, poor fit]
O=[N+]([O-])c1ccc(NC2CCCC2)cc1 22.4 µM [inhibitor, partial curve]
O=C(CSc1nnc(-c2cccs2)n1Cc1ccccc1)NCc1ccc2c(c1)OCO2 35.5 µM [inhibitor, single point]
Cc1ccccc1N1CCN(C(=S)c2ccc(-c3cccc([N+](=O)[O-])c3)o2)CC1 17.8 µM [inhibitor, partial curve]
CCC1CN(C(=O)NCc2ccc(F)cc2)c2cc(C)ccc2O1 (stereo unspecified) 2.82 µM [inhibitor, partial curve]
O=C(CSc1ncn[nH]1)c1ccccc1 44.7 µM [inhibitor, single point]
O=C1ON=C(c2ccc(Cl)cc2)/C1=C/c1ccc(O)cc1 39.8 µM [inhibitor, single point]
COc1ccc(OCCSc2nc(C)nc3ccccc23)cc1 22.4 µM [inhibitor, partial curve]
O=C(O)C1CCCCC1C(=O)NCc1ccc(F)cc1 (stereo unspecified) 50.1 µM [inhibitor, single point]
O=C(Oc1ccc(F)cc1C(=O)/C=C/c1cccs1)c1cccc([N+](=O)[O-])c1 28.2 µM [inhibitor, partial curve]
COc1ccc([C@]23Cc4ccccc4C(O2)C2=C(CC(C)(C)CC2=O)O3)cc1 3.55 µM [inhibitor, partial curve]
CC(C)n1cc(/C=N/NC(=O)COc2cccc3cccnc23)c2ccccc21 56.2 µM [inhibitor, single point]
O=C(CNCC1CCCCC1)Nc1ccc(N2CCCCC2)cc1 31.6 µM [inhibitor, partial curve]
Cc1nn(-c2ccccc2)c(C)c1C(=O)OCC(=O)NC12CC3CC(CC(C3)C1)C2 12.6 µM [inhibitor, partial curve]
COc1ccccc1C1=Nn2c(COc3ccccc3)nnc2SC1 20 µM [inhibitor, partial curve]
NC(=O)CC(NC(=O)Cc1ccc(Cl)cc1)c1ccc(NC2CC3CCC2C3)c([N+](=O)[O-])c1 (stereo unspecified) 50.1 µM [inhibitor, single point]
c1ccc(NCc2cccc3ccccc23)nc1 25.1 µM [inhibitor, single point]
O=C1C2C3C=CC(C3)C2C(=O)N1c1ccc2c(c1)OCO2 (stereo unspecified) 11.2 µM [inhibitor, partial curve]
CC(Oc1ccc(C(C)(C)C)cc1)c1ccnc2nc(/N=C/N(C)C)nn12 (stereo unspecified) 15.8 µM [inhibitor, partial curve]
COc1ccc(C)cc1NC(=O)CSc1nc(=O)n(Cc2ccco2)c2c1CCC2 22.4 µM [inhibitor, partial curve]
O=C(COC(=O)c1cc(=O)[nH]c2ccccc12)NC1CCCCCCC1 14.1 µM [inhibitor, partial curve]
O=C1CC(C(F)(F)C(F)(F)C(F)(F)C(F)(F)F)=Nc2ccccc2N1 3.98 µM [inhibitor, full curve]
CC(C)(C)n1nnnc1C(c1ccccc1F)N(Cc1ccco1)CC1CCCO1 (stereo unspecified) 44.7 µM [inhibitor, single point]
COCCN(C(=S)Nc1ccc(C)c(C)c1)C(C)c1ccco1 (stereo unspecified) 28.2 µM [inhibitor, single point]
CC(=O)N1CCN(S(=O)(=O)c2cccc(C(=O)NC3CCCc4ccccc43)c2)CC1 (stereo unspecified) 35.5 µM [inhibitor, single point]
Cc1ccc(NC(=O)CC(C)N2CCCC2)cc1 (stereo unspecified) 50.1 µM [inhibitor, single point]
O=C(OCC(=O)c1c[nH]c2ccccc12)c1ccc(Br)o1 39.8 µM [inhibitor, single point]
Fc1ccccc1N1CCN(C(c2ccccn2)c2nnnn2C2CCCCC2)CC1 (stereo unspecified) 39.8 µM [inhibitor, partial curve]
Cc1c(NC(=O)Cc2ccc(Cl)cc2)cccc1-c1nc2cccnc2s1 0.794 µM [inhibitor, full curve, poor fit]
CCOc1ccc(CNC(=O)c2ccc(NC(=O)N3CCCCc4ccccc43)cc2)cc1 11.2 µM [inhibitor, single point]
CC(=O)Nc1ccc(NC(=O)C(C)OC(=O)c2ccc(OCc3c(C)noc3C)cc2)cc1 (stereo unspecified) 25.1 µM [inhibitor, partial curve]
O=C(O)/C=C/C(=O)Nc1ccc(OCc2ccccc2)cc1 50.1 µM [inhibitor, single point]
Cc1cc(C)c(Cn2cnc3ccccc32)c(C)c1 25.1 µM [inhibitor, partial curve]
CCN(CC)c1ccc(NC(=S)NC(=O)c2ccco2)cc1 31.6 µM [inhibitor, partial curve]
CCN1/C(=C/C=C/c2oc3ccc(-c4ccccc4)cc3[n+]2CC)Oc2ccc(-c3ccccc3)cc21 35.5 µM [inhibitor, partial curve]
COC(=O)c1c(NC(=O)/C=C/C(=O)O)sc(C)c1-c1ccc(C(C)C)cc1 35.5 µM [inhibitor, single point]
N/C(=N\OC(=O)C1CCCCC1)c1cccnc1 35.5 µM [inhibitor, single point]
O=C(COc1ccccc1Cl)c1ccc2c(c1)CCCC2 31.6 µM [inhibitor, partial curve]
CC(C)(C)c1ccc(/C=C/C(=O)NC2=NCCS2)cc1 25.1 µM [inhibitor, partial curve]
O=C(CNC(=O)c1ccccc1F)OCC(=O)c1ccc(Cl)s1 25.1 µM [inhibitor, partial curve]
O=C(/C=C/c1ccc([N+](=O)[O-])cc1)NC1CC2CCC1C2 (stereo unspecified) 35.5 µM [inhibitor, single point]
CCN(CC)CCOC(=O)c1ccc(NC(=O)CCCN2C(=O)/C(=C/c3cccs3)SC2=S)cc1 25.1 µM [inhibitor, partial curve]
O=C1OC(Oc2ccccc2)(c2ccccc2)c2ccccc21 (stereo unspecified) 35.5 µM [inhibitor, partial curve]
O=C1c2cccnc2C(=O)N1Cc1ccc(Cl)cc1 39.8 µM [inhibitor, partial curve]
O=C(NCCC1=CCCCC1)C1CCCN(S(=O)(=O)c2cccc3cccnc23)C1 (stereo unspecified) 28.2 µM [inhibitor, partial curve]
CCOC(=O)c1c(-c2ccc(C)cc2)csc1NC(=O)CCN1CCOCC1 39.8 µM [inhibitor, partial curve]
Cc1cc(-c2csc(N)n2)c(C)n1CCC(C)C 31.6 µM [inhibitor, partial curve]
O=C(NCCCCc1ccccc1)C1CC(c2cccc([N+](=O)[O-])c2)=NO1 (stereo unspecified) 31.6 µM [inhibitor, partial curve]
CCN(CC)S(=O)(=O)c1ccc(-n2cnnn2)c(C)c1 20 µM [inhibitor, partial curve]
CC(CNC(=O)COc1ccccc1)OC(=O)Nc1ccc(Cl)c(Cl)c1 (stereo unspecified) 39.8 µM [inhibitor, single point]
CCCCOc1ccc(/C(O)=C2/C(=O)C(=O)N(CCCOC)C2c2ccncc2)cc1C (stereo unspecified) 39.8 µM [inhibitor, single point]

Activity change, negative = displacement, inactive:
CC(=O)Nc1ccc(S(=O)(=O)NCCc2csc3nc(-c4ccc(Cl)cc4)nn23)cc1 -0.0808%
O=C(C[n+]1ccccn1)c1ccccc1 -8.47%
CC1(C)C2([N+](=O)[O-])CN3CC1([N+](=O)[O-])CN(C2)C3c1ccc(O)c(O)c1 (stereo unspecified) -9.18%
CCCN1CCN(c2nnc(-n3cccc3C(=O)Nc3ccccc3C(F)(F)F)s2)CC1 1.49%
c1ccc(CNc2ccnc(-c3ccoc3)n2)cc1 -5.87%
COc1cccc(N2CC(C(=O)Nc3nnc(SCc4cccnc4)s3)CC2=O)c1 (stereo unspecified) -6.6%
COc1ccc(/C=C2/SC(c3ccc(C)cc3)=NC2=O)cc1OC -22.6%
CN(c1ccc(C(=O)NCc2ccc3c(c2)OCO3)cc1)S(C)(=O)=O -6.3%
COc1cc(OC)cc(C(=O)NNC(=O)c2ccccn2)c1 -8.86%
CCN1CCc2c(sc(-n3cccc3)c2C(C)NC(=O)Nc2ccc(C(=O)OC)cc2)C1 (stereo unspecified) -11.8%
Cc1cc(NC(=O)CSc2nc3ccccc3cc2C#N)no1 -5.99%
COc1ccc(NC(=O)NC(C(F)(F)F)C(F)(F)F)cc1 1.22%
O=C(CSc1ncc(-c2ccccc2)nn1)NCc1ccco1 -10.5%
CCOc1cccc(C2C(C(=O)c3ccc(C)o3)=C(O)C(=O)N2c2nccs2)c1 (stereo unspecified) -12.8%
